# Out of some 390,000 compounds screened, about 4,000 (1%) were called active. This list was built around the results that the source calls inconclusive (neither active nor inactive); the mix of calls is not that of the screen. Calls come from the whole dose curve; as a rule, active = well fitted inhibition curve with a large enough effect; inconclusive = small, poorly fitted or top-dose-only effect; inactive = no such curve, though single readings can be large or run the other way. Potencies beside an inconclusive call are fits to weak or partial responses and may not hold up. The source holds several records for some structures; these can differ, active in one and inactive in another.
# Molecular target: Thioredoxin reductase 1, cytoplasmic (Rattus norvegicus) (UniProt O89049)
# Chain of UniProt O89049 (O89049 whole entry, looked up): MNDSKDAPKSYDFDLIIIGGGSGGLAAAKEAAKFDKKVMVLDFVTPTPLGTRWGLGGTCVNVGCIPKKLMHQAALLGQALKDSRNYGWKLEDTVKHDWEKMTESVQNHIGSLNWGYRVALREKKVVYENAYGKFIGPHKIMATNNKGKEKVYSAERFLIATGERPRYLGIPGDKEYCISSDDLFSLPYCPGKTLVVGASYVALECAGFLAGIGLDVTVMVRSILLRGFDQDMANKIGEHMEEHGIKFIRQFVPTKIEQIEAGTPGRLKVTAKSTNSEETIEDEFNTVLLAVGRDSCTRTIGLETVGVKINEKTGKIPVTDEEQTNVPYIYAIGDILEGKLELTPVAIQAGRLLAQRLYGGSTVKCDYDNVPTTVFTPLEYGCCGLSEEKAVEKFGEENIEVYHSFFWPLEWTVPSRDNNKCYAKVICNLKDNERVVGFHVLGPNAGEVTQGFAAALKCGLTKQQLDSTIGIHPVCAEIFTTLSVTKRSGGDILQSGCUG
# Test: qHTS Assay for Inhibitors of Mammalian Selenoprotein Thioredoxin Reductase 1 (TrxR1): qHTS; note: nearly all actives have a fitted effect of over 65% in size
# Conditions: recombinant rTrxR1, NADPH fluorescence consumption, selenite substrate; series mostly up to 114 µM; activity change, negative = inhibition: at the top concentration
# Outline: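 Rat TrxR1 (90 nM in the dispensed reagent) was pre-reduced with 400 uM NADPH for 5 min at room temperature, then incubated with compound for 15 min. After 400 uM selenite was added, NADPH fluorescence (Ex 340/Em 450 nm) was followed for 8 min.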
# % is set by controls: 0 for no effect and ±100 for the full control effect; potency is the fitted concentration of half-maximal effect; tags give direction and shape of the fitted curve.
SMILES,Potency,"activity change, negative = inhibition"
COc1cc2c(NC3CCN(C)CC3)nc(N3CCCN(C)CC3)nc2cc1OCC1CCNCC1,"inconclusive: 44.7 µM [inhibitor, partial curve, poor fit]",–
CCN1CCN(c2nc(-c3ccccc3Cl)nc3ccccc23)CC1,"inconclusive: 79.4 µM [inhibitor, single point]",–
COC(=O)CC(NC(=S)NC(=O)c1ccccc1)c1ccc(Br)cc1 (centres undefined),"inconclusive: 15.8 µM [inhibitor, full curve, poor fit]",–
CC(C)(Sc1ccc(CCN(CCCCC2CCCCC2)C(=O)NC2CCCCC2)cc1)C(=O)O,"inconclusive: 56.2 µM [inhibitor, partial curve, poor fit]",–
CC(C)CC(N)c1cn([C@@H](CCC(=O)O)C(=O)N2CCNCC2)nn1 (some centres undefined),–,inactive: 7.07% [at 57.1 µM]
O=C(NCC(=O)N1CCN(C(=O)c2ccco2)CC1)c1ccc(Cl)cc1,–,inactive: 6.47%
CCOC(=O)N1CCN(c2ccc(C(F)(F)F)cn2)CC1,"inconclusive: 89.1 µM [inhibitor, single point]",–
Cc1cccc(C)c1NS(=O)(=O)c1ccc2c(c1)[C@H]1C=CC[C@H]1[C@@H](c1ccc(Cl)cc1)N2,"inconclusive: 44.7 µM [inhibitor, partial curve]",–
O=C(CCCN1C(=O)/C(=C/c2ccccc2Cl)SC1=S)NNC(=O)c1ccc(Cl)cc1,–,inactive: 11.3%
CSc1ccc2c(c1)N(CCC1CCCCN1C)c1ccccc1S2 (centres undefined),"inconclusive: 22.4 µM [inhibitor, full curve, poor fit]",–
COc1ccc(-c2nc(CN3CCC(C(=O)N4CCOCC4)CC3)c(C)o2)c(OC)c1,"inconclusive: 70.8 µM [inhibitor, partial curve]",–
CC1=C(/C=C/C(C)=C/C=C/C(C)=C\C(=O)O)C(C)(C)CCC1,active: 35.5 µM,–
CCC1CCc2c(sc(NC(=O)c3ccoc3C)c2C(N)=O)C1 (centres undefined),"inconclusive: 89.1 µM [inhibitor, partial curve, poor fit]",–
Cc1cccc2cc(C(c3nnnn3C(C)(C)C)N3CCN(C(=O)c4ccco4)CC3)c(=O)[nH]c12 (centres undefined),–,inactive: -5.23%
Cc1ccc(OC(=O)c2ccc([N+](=O)[O-])cc2Cl)cn1,"inconclusive: 20 µM [inhibitor, partial curve, poor fit]",–
C#CCOCCOCCOCCNc1nc(N2CCN(C(=O)[C@H]([C@@H](C)CC)n3cc(CCCN=C(N)N)nn3)CC2)nc(N2CCN(C(=O)[C@H]([C@@H](C)CC)n3cc(CCC(=O)O)nn3)CC2)n1,"inconclusive: 28.2 µM [inhibitor, full curve, poor fit]",–
CCc1ccc(-c2cc(C(=O)Nc3ccc(S(=O)(=O)NC(C)=O)cc3)c3ccccc3n2)cc1,"inconclusive: 70.8 µM [inhibitor, single point]",–
O=C(CSc1nc(-c2ccccc2)c2ccccc2n1)Nc1ccc(F)cc1,–,inactive: 17.1%
O=C(CSc1nnc(-c2ccco2)o1)NC(=O)Cc1ccccc1,"inconclusive: 89.1 µM [inhibitor, single point]",–
c1ccc(CN2c3ccccc3-c3nc4ccccc4n3C2c2ccccn2)cc1 (centres undefined),–,inactive: -6.65%
COc1ccc(NC(=O)COc2ccc(S(=O)(=O)NC3CCCCC3)cc2)c(OC)c1,–,inactive: 13.9%
O=C(CCCc1nc(-c2ccccc2)no1)Nc1cc(C(F)(F)F)cc(C(F)(F)F)c1,–,inactive: 11.3%

SMILES,Potency,"activity change, negative = inhibition"
Cc1ccc(C(=S)NCS(=O)(=O)c2ccc(C)cc2)cc1,"inconclusive: 2 µM [inhibitor, full curve, poor fit]",–
CCc1cccc(CC)c1NC(=S)NCCc1ccc(O)c(O)c1,active: 6.31 µM,–
COCCCN1C(=O)C(O)=C(C(=O)c2ccc(C)o2)C1c1cccc(Br)c1 (centres undefined),"inconclusive: 22.4 µM [inhibitor, partial curve, poor fit]",–
Cc1c(NC(=O)CSC2=C(C#N)C(c3ccccc3F)CC(=O)N2)c(=O)n(-c2ccccc2)n1C (centres undefined),–,inactive: -5.39%
CCc1ccc(C(=O)CSc2n[nH]c(C)n2)cc1,"inconclusive: 56.2 µM [inhibitor, partial curve, poor fit]",–
C/C=C/c1ccc(OCC(=O)OCC2=C(C(=O)OCC)C(C)NC(=O)N2)c(OC)c1 (centres undefined),"inconclusive: 25.1 µM [inhibitor, partial curve, poor fit]",–
O=C1C(Cl)=C(Nc2ccccc2O)C(=O)N1c1ccccc1,active: 44.7 µM,–
Cc1oc(-c2ccc(C(=O)Nc3cccc(C(F)(F)F)c3)cc2)nc1CSc1ccccc1,–,inactive: 9.88%
Fc1ccc(OCc2nc(-c3ccc(Br)o3)no2)c(F)c1,"inconclusive: 79.4 µM [inhibitor, partial curve, poor fit]",–
COc1ccc(C(=O)NC(=S)Nc2cccc(S(=O)(=O)N3CCOCC3)c2)cc1,"inconclusive: 15.8 µM [inhibitor, partial curve]",–
C=CCNC(=S)Nc1cccc2ccccc12,–,inactive: -4.92%
O=C(Nc1ccc(Cl)cc1)c1nc[nH]c1C(=O)NCc1ccccc1,–,inactive: 4.39%
COc1ccc(CCn2c3c(c(=O)[nH]c2=S)CN(CC(C)C)CN3)cc1OC,"inconclusive: 89.1 µM [inhibitor, single point]",–
COc1cccc(C(=O)Oc2ccccc2/C=C\C(=O)c2cc3ccccc3o2)c1,"inconclusive: 56.2 µM [inhibitor, partial curve, poor fit]",–
O=C(N/N=C/c1cc(Cl)cc([N+](=O)[O-])c1O)c1cc(-c2ccccn2)nc2ccccc12,"inconclusive: 39.8 µM [inhibitor, partial curve]",–
COc1cc(/C=C/CNC[C@H]2O[C@@H](n3cnc(C(N)=O)n3)[C@H](O)[C@@H]2O)ccc1O,"inconclusive: 50.1 µM [inhibitor, partial curve]",–
CSc1cccc(NS(=O)(=O)c2ccc(C(C)=O)cc2)c1,–,inactive: -6.28%
S=C1CCSc2ccc(Cl)cc2N1,"inconclusive: 3.16 µM [inhibitor, partial curve]",–
CCOC(=O)c1sc2nc3c(SCCC(=O)O)cc(C(=O)c4cc(OC)ccc4O)cn3c(=O)c2c1C,"inconclusive: 70.8 µM [inhibitor, partial curve, poor fit]",–
Cc1ccc(-c2nc3cnccn3c2Nc2ccc3c(c2)OCCO3)o1,"inconclusive: 28.2 µM [inhibitor, partial curve, poor fit]",–
COc1cc2c(NC3CCN(C)CC3)nc(N3CCCN(C)CC3)nc2cc1OCCCN1CCOCC1,"inconclusive: 56.2 µM [inhibitor, partial curve, poor fit]",–
O=C(Cc1csc(-c2ccc(F)cc2)n1)Nc1cccc(S(=O)(=O)NC2=NCCC2)c1,"inconclusive: 39.8 µM [inhibitor, partial curve, poor fit]",–

SMILES,Potency,"activity change, negative = inhibition"
CN(C)c1ccc(/C=C2/CCCc3c2nc2ccccc2c3C(=O)O)cc1,"inconclusive: 79.4 µM [inhibitor, single point]",–
Cc1ccc(-c2csc(=S)n2CC(=O)OCC(=O)NCc2ccco2)cc1,"inconclusive: 39.8 µM [inhibitor, partial curve, poor fit]",–
COC(CNC(=O)C1CCN(S(=O)(=O)c2ccc3nc4c(c(C(=O)O)c3c2)CC(C)CC4)CC1)OC (centres undefined),"inconclusive: 70.8 µM [inhibitor, partial curve]",–
COc1ccc(NS(=O)(=O)c2csc(C(N)=O)c2)cc1,–,inactive: -17.6%
Cc1ccc(C(=O)CSc2nnc(-c3ccco3)n2Cc2ccccc2)cc1,"inconclusive: 39.8 µM [inhibitor, single point]",–
CN(Cc1ccco1)S(=O)(=O)c1nnc(NC(=O)c2ccccc2Cl)s1,active: 25.1 µM,–
O=C(NCCc1cccs1)C1CCC(=O)N(CCc2cccc(F)c2)C1 (centres undefined),–,inactive: 16.5%
COc1ccccc1C(=O)NC(=O)COC(=O)c1nccnc1N,"inconclusive: 89.1 µM [inhibitor, single point]",–
Cc1cc(C)c2nc(N3C(=O)C(O)=C(C(=O)c4ccco4)C3c3cccc(O)c3)sc2c1 (centres undefined),"inconclusive: 79.4 µM [inhibitor, single point]",–
O=C(Nc1ccc2nc(-c3ccco3)[nH]c2c1)c1cccs1,active: 70.8 µM,–
CC(=O)c1c(C)[nH]c(C(=O)Nc2ccc(F)c(F)c2F)c1C,–,inactive: 20%
S=C(Nc1ccccc1)Nc1ccccc1Br,"inconclusive: 20 µM [inhibitor, full curve]",–
Cn1nnnc1Sc1ncnc2scc(-c3ccc([N+](=O)[O-])cc3)c12,"inconclusive: 79.4 µM [inhibitor, partial curve]",–
CC(C(=O)NCCC1=CCCCC1)c1ccc([N+](=O)[O-])cc1 (centres undefined),"inconclusive: 89.1 µM [inhibitor, single point]",–
Cc1ccc(OCC(=O)N(C)CC(=O)NCc2ccco2)c(Br)c1,"inconclusive: 79.4 µM [inhibitor, single point]",–
O=C(C1=C[C@@H](c2ccc(C(F)(F)F)cc2)C[C@@H](OCc2ccc(CO)cc2)O1)N1CCN(Cc2ccccc2)CC1,"inconclusive: 79.4 µM [inhibitor, single point]",–
CCCCc1cc(=O)oc2c(CN3CCCC3)c(O)ccc12,"inconclusive: 63.1 µM [inhibitor, single point]",–
CCOC(=O)c1c(C)oc2c(CN3CCN(C)CC3)c(Br)c(OC)c(O)c12,"inconclusive: 25.1 µM [inhibitor, partial curve, poor fit]",–
Cc1cc(C)c(S(=O)(=O)NCC(c2ccco2)S(=O)(=O)c2cccs2)c(C)c1 (centres undefined),"inconclusive: 0.631 µM [inhibitor, full curve, poor fit]",–
O=C(CC(=O)Nc1ccccc1F)Nc1ccccc1F,active: 89.1 µM,–

# From PubChem BioAssay AID588453 (National Center for Advancing Translational Sciences (NCATS), 2011)
